# Results: the supplement of paper PMC8728848
# This is one part of the list.
# B1: Apa (Mycobacterium tuberculosis), Rv1860 (protein)
# chain: MHQVDPNLTRRKGRLAALAIAAMASASLVTVAVPATANADPEPAPPVPTTAASPPSTAAAPPAPATPVAPPPPAAANTPNAQPGDPNAAPPPADPNAPPPPVIAPNAPQPVRIDNPVGGFSFALPAGWVESDAAHFDYGSALLSKTTGDPPFPGQPPPVANDTRIVLGRLDQKLYASAEATDSKAAARLGSDMGEFYMPYPGTRINQETVSLDANGVSGSASYYEVKFSDPSKPNGQIWTGVIGSPAANAPDAGPPQRWFVVWLGTANNPVDKGAAKALAESIRPLVAPPPAPAPAPAEPAPAPAPAGEVAPTPTTPTPQRTLPA
# Experiments:
# Assay in all cases: glycan array binding signal (z-score within array); higher = stronger binding
# Details in all cases: glycan notation: IUPAC condensed, linker removed
# [1] = molecular target: GlcNAc(b1-3)Gal(b1-4)GlcNAc(b1-3)Gal(b1-4)GlcNAc(b1-3)Gal(b1-4)GlcNAc(b1-3)Gal(b1-4)GlcNAc(b1-2)[GlcNAc(b1-3)Gal(b1-4)GlcNAc(b1-3)Gal(b1-4)GlcNAc(b1-3)Gal(b1-4)GlcNAc(b1-3)Gal(b1-4)GlcNAc(b1-6)]Man(a1-6)[GlcNAc(b1-3)Gal(b1-4)GlcNAc(b1-3)Gal(b1-4)GlcNAc(b1-3)Gal(b1-4)GlcNAc(b1-3)Gal(b1-4)GlcNAc(b1-2)Man(a1-3)]Man(b1-4)GlcNAc(b1-4)[Fuc(a1-6)]GlcNAc
# Procedure, shortened: (§1)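 From the Consortium for Functional Glycomics database, 3228 arrays were curated, keeping only those whose protein sequence was available. Binding is given as a within-array Z-score averaged across arrays sharing a protein sequence and across linkers. Negative Z-scores can be read as non-binding.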
# [2] = molecular target: GlcNAc(b1-3)Gal(b1-4)GlcNAc(b1-3)Gal(b1-4)GlcNAc(b1-3)GalNAc
# Procedure, shortened: as §1
# [3] = molecular target: GlcNAc(b1-3)Gal(b1-4)GlcNAc(b1-3)GalNAc
# Procedure, shortened: as §1
# [4] = molecular target: GlcNAc(b1-3)Gal(b1-4)GlcNAc(b1-3)[GlcNAc(b1-3)Gal(b1-4)GlcNAc(b1-3)]GalNAc
# Procedure, shortened: as §1
# [5] = molecular target: GlcNAc(b1-3)Gal(b1-4)GlcNAc(b1-6)[Gal(b1-3)]GalNAc
# Procedure, shortened: as §1
# [6] = molecular target: GlcNAc(b1-3)Gal(b1-4)GlcNAc(b1-6)[GlcNAc(b1-3)Gal(b1-3)]GalNAc
# Procedure, shortened: as §1
# [7] = molecular target: GlcNAc(b1-3)Gal(b1-4)GlcNAc(b1-6)[GlcNAc(b1-3)]Gal(b1-4)GlcNAc
# Procedure, shortened: as §1
# GlcNAc(b1-3)GalNAc = molecular target: GlcNAc(b1-3)GalNAc
# Procedure, shortened: as §1
# GlcNAc(b1-3)Man = molecular target: GlcNAc(b1-3)Man
# Procedure, shortened: as §1
# [8] = molecular target: GlcNAc(b1-3)[GlcNAc(b1-4)][GlcNAc(b1-6)]GlcNAc
# Procedure, shortened: as §1
# [9] = molecular target: GlcNAc(b1-3)[GlcNAc(b1-6)]Gal(b1-4)GlcNAc
# Procedure, shortened: as §1
# [10] = molecular target: GlcNAc(b1-3)[GlcNAc(b1-6)]GalNAc
# Procedure, shortened: as §1
# [11] = molecular target: GlcNAc(b1-4)Gal(b1-4)GlcNAc
# Procedure, shortened: as §1
# GlcNAc(b1-4)GlcNAc = molecular target: GlcNAc(b1-4)GlcNAc
# Procedure, shortened: as §1
# [12] = molecular target: GlcNAc(b1-4)GlcNAc(b1-4)GlcNAc
# Procedure, shortened: as §1
# [13] = molecular target: GlcNAc(b1-4)GlcNAc(b1-4)GlcNAc(b1-4)GlcNAc(b1-4)GlcNAc
# Procedure, shortened: as §1
# [14] = molecular target: GlcNAc(b1-4)GlcNAc(b1-4)GlcNAc(b1-4)GlcNAc(b1-4)GlcNAc(b1-4)GlcNAc
# Procedure, shortened: as §1
# [15] = molecular target: GlcNAc(b1-4)[GlcNAc(b1-6)]GalNAc
# Procedure, shortened: as §1
# [16] = molecular target: GlcNAc(b1-6)Gal(b1-4)GlcNAc
# Procedure, shortened: as §1
# GlcNAc(b1-6)GalNAc = molecular target: GlcNAc(b1-6)GalNAc
# Procedure, shortened: as §1
# [17] = molecular target: GlcNAc6S(b1-3)Gal(b1-4)GlcNAc
# Procedure, shortened: as §1
# Kdn(a2-3)Gal(b1-3)GalNAc = molecular target: Kdn(a2-3)Gal(b1-3)GalNAc
# Procedure, shortened: as §1
# Kdn(a2-3)Gal(b1-3)GlcNAc = molecular target: Kdn(a2-3)Gal(b1-3)GlcNAc
# Procedure, shortened: as §1
# Kdn(a2-3)Gal(b1-4)Glc = molecular target: Kdn(a2-3)Gal(b1-4)Glc
# Procedure, shortened: as §1
# Kdn(a2-3)Gal(b1-4)GlcNAc = molecular target: Kdn(a2-3)Gal(b1-4)GlcNAc
# Procedure, shortened: as §1
# [18] = molecular target: Kdn(a2-3)Gal(b1-4)[Fuc(a1-3)]GlcNAc
# Procedure, shortened: as §1
# Kdn(a2-6)Gal(b1-4)GlcNAc = molecular target: Kdn(a2-6)Gal(b1-4)GlcNAc
# Procedure, shortened: as §1
# [19] = molecular target: Man(a1-2)Man(a1-2)Man(a1-3)Man
# Procedure, shortened: as §1
# [20] = molecular target: Man(a1-2)Man(a1-2)Man(a1-6)[Man(a1-3)]Man
# Procedure, shortened: as §1
# Man(a1-2)Man(a1-3)Man = molecular target: Man(a1-2)Man(a1-3)Man
# Procedure, shortened: as §1
# [21] = molecular target: Man(a1-2)Man(a1-3)[Man(a1-2)Man(a1-6)]Man
# Procedure, shortened: as §1
# [22] = molecular target: Man(a1-2)Man(a1-3)[Man(a1-2)Man(a1-6)]Man(a1-6)[Man(a1-2)Man(a1-2)Man(a1-3)]Man
# Procedure, shortened: as §1
# [23] = molecular target: Man(a1-2)Man(a1-3)[Man(a1-2)Man(a1-6)]Man(a1-6)[Man(a1-2)Man(a1-2)Man(a1-3)]Man(b1-4)GlcNAc(b1-4)GlcNAc
# Procedure, shortened: as §1
# [24] = molecular target: Man(a1-2)Man(a1-3)[Man(a1-6)]Man(a1-6)[Man(a1-2)Man(a1-3)]Man(b1-4)GlcNAc(b1-4)GlcNAc
# Procedure, shortened: as §1
# [25] = molecular target: Man(a1-2)Man(a1-6)[Man(a1-3)]Man(a1-6)[Man(a1-2)Man(a1-2)Man(a1-3)]Man
# Procedure, shortened: as §1
# [26] = molecular target: Man(a1-2)Man(a1-6)[Man(a1-3)]Man(a1-6)[Man(a1-2)Man(a1-2)Man(a1-3)]Man(b1-4)GlcNAc(b1-4)GlcNAc
# Procedure, shortened: as §1
# Man(a1-3)[Man(a1-6)]Man = molecular target: Man(a1-3)[Man(a1-6)]Man
# Procedure, shortened: as §1
# [27] = molecular target: Man(a1-3)[Man(a1-6)]Man(a1-6)[Man(a1-2)Man(a1-3)]Man(b1-4)GlcNAc(b1-4)GlcNAc
# Procedure, shortened: as §1
# [28] = molecular target: Man(a1-3)[Man(a1-6)]Man(a1-6)[Man(a1-3)]Man
# Procedure, shortened: as §1
# [29] = molecular target: Man(a1-3)[Man(a1-6)]Man(a1-6)[Man(a1-3)]Man(b1-4)GlcNAc(b1-4)GlcNAc
# Procedure, shortened: as §1
# [30] = molecular target: Man(a1-3)[Man(a1-6)]Man(b1-4)GlcNAc(b1-4)GlcNAc
# Procedure, shortened: as §1
# [31] = molecular target: Man(a1-3)[Man(a1-6)]Man(b1-4)GlcNAc(b1-4)[Fuc(a1-6)]GlcNAc
# Procedure, shortened: as §1
# Man(a1-6)Man = molecular target: Man(a1-6)Man
# Procedure, shortened: as §1
# Man(b1-4)GlcNAc = molecular target: Man(b1-4)GlcNAc
# Procedure, shortened: as §1
# MurNAc(b1-4)GlcNAc = molecular target: MurNAc(b1-4)GlcNAc
# Procedure, shortened: as §1
binder,measurement,setting,value
B1,glycan array binding signal (z-score),[1],0.395
same,glycan array binding signal (z-score),[2],-0.41
same,glycan array binding signal (z-score),[3],-0.584
same,glycan array binding signal (z-score),[4],0.26
same,glycan array binding signal (z-score),[5],-0.615
same,glycan array binding signal (z-score),[6],-0.157
same,glycan array binding signal (z-score),[7],-0.495
same,glycan array binding signal (z-score),GlcNAc(b1-3)GalNAc,-0.234
same,glycan array binding signal (z-score),GlcNAc(b1-3)Man,0.339
same,glycan array binding signal (z-score),[8],-0.159
same,glycan array binding signal (z-score),[9],-0.418
same,glycan array binding signal (z-score),[10],-0.468
same,glycan array binding signal (z-score),[11],-0.28
same,glycan array binding signal (z-score),GlcNAc(b1-4)GlcNAc,-0.405
same,glycan array binding signal (z-score),[12],-0.278
same,glycan array binding signal (z-score),[13],0.186
same,glycan array binding signal (z-score),[14],0.043
same,glycan array binding signal (z-score),[15],-0.627
same,glycan array binding signal (z-score),[16],-0.453
same,glycan array binding signal (z-score),GlcNAc(b1-6)GalNAc,-0.174
same,glycan array binding signal (z-score),[17],-0.005
same,glycan array binding signal (z-score),Kdn(a2-3)Gal(b1-3)GalNAc,-0.323
same,glycan array binding signal (z-score),Kdn(a2-3)Gal(b1-3)GlcNAc,-0.245
same,glycan array binding signal (z-score),Kdn(a2-3)Gal(b1-4)Glc,-0.262
same,glycan array binding signal (z-score),Kdn(a2-3)Gal(b1-4)GlcNAc,-0.392
same,glycan array binding signal (z-score),[18],-0.055
same,glycan array binding signal (z-score),Kdn(a2-6)Gal(b1-4)GlcNAc,-0.331
same,glycan array binding signal (z-score),[19],0.925
same,glycan array binding signal (z-score),[20],-0.218
same,glycan array binding signal (z-score),Man(a1-2)Man(a1-3)Man,-0.335
same,glycan array binding signal (z-score),[21],-0.176
same,glycan array binding signal (z-score),[22],-0.418
same,glycan array binding signal (z-score),[23],0.314
same,glycan array binding signal (z-score),[24],-0.154
same,glycan array binding signal (z-score),[25],0.102
same,glycan array binding signal (z-score),[26],0.36
same,glycan array binding signal (z-score),Man(a1-3)[Man(a1-6)]Man,-0.457
same,glycan array binding signal (z-score),[27],0.221
same,glycan array binding signal (z-score),[28],0.665
same,glycan array binding signal (z-score),[29],-0.102
same,glycan array binding signal (z-score),[30],-0.187
same,glycan array binding signal (z-score),[31],0.243
same,glycan array binding signal (z-score),Man(a1-6)Man,-0.69
same,glycan array binding signal (z-score),Man(b1-4)GlcNAc,-0.741
same,glycan array binding signal (z-score),MurNAc(b1-4)GlcNAc,-0.3
